Here are results for 57 compounds from PMC4336329 (PLoS ONE, 2015).

Among all 310,000 compounds or so, about 2,200 (0.71%) showed an effect of 50% or more. Effects have a minus sign here. The list shows a part of the results.

Chain of human ether-à-go-go-related gene (hERG) potassium channel (Q12809 whole entry, looked up): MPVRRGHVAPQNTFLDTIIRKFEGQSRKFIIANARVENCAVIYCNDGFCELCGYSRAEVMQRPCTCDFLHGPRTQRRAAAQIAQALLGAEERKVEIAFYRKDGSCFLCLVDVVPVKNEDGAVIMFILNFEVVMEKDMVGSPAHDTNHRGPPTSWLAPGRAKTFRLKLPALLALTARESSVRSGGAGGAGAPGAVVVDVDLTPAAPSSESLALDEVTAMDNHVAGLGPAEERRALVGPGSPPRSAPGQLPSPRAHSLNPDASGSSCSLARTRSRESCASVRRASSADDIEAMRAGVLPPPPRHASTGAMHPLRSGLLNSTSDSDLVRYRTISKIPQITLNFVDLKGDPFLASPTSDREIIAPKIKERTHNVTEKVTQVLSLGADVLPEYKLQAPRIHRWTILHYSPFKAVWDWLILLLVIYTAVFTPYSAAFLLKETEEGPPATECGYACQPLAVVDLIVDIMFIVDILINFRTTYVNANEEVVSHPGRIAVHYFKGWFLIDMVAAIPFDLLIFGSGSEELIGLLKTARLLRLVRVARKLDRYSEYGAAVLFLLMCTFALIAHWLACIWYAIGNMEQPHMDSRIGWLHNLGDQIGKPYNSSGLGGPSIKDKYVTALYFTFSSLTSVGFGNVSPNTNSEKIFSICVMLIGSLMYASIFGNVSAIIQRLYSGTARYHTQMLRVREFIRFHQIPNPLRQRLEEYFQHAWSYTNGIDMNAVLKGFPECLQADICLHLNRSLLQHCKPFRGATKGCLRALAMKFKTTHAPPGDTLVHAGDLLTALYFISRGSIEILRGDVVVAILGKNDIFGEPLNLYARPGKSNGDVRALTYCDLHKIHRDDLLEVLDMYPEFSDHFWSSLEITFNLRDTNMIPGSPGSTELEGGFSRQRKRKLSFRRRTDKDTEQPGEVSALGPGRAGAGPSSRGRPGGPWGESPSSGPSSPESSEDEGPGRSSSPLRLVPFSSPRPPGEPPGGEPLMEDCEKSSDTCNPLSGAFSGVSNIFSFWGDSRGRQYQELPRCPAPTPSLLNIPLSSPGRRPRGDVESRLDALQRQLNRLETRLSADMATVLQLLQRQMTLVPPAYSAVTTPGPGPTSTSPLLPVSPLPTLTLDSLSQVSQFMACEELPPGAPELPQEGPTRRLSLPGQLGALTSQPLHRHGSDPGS

The assay has as its target human ether-à-go-go-related gene (hERG) potassium channel (human, UniProt Q12809). Description: primary screen, population patch clamp on CHO cells stably expressing hERG.
In the case of `CN(Cc1cccs1)CC(O)COCc1ccco1` (stereo not drawn), the “hERG current change (%, negative = inhibition) at 1uM” value stood at 5.31%.

Consider `O=C(NCCCN1CCOCC1)C1CC(=O)N(c2ccccc2)C1` (stereo not drawn), for which the “hERG current change (%, negative = inhibition) at 1uM” value was 11.6%.

Consider `Cc1ccccc1S(=O)(=O)Cc1ccc(C(=O)NCCN(C)Cc2ccccc2)o1`, for which the “hERG current change (%, negative = inhibition) at 1uM” value is recorded as -5.08%.

`CCN(CC)CCN(C(=O)CN1C(=O)CCC1=O)c1nc2cc3c(cc2s1)OCO3.Cl`: the “hERG current change (%, negative = inhibition) at 1uM” value stood at 3.68%.

Regarding `O=C(NCCN1CCCCC1)c1ccco1`, the “hERG current change (%, negative = inhibition) at 1uM” value is reported as 9.42%.

On to `COC(=O)c1[nH]c2cccc(OC)c2c1NC(=O)CN1CCN(c2cccc(OC)c2)C(C)C1` (stereo not drawn), for which the “hERG current change (%, negative = inhibition) at 1uM” value is on record as 20%.

For `Cc1ccc(NS(=O)(=O)c2ccc(NC(=O)c3cccs3)cc2)cc1`, the “hERG current change (%, negative = inhibition) at 1uM” value is recorded as 9.72%.

Take `Cc1ccc(C2CC(C(F)F)n3ncc(C(=O)Nc4c(C)nn(Cc5c(F)cccc5Cl)c4C)c3N2)cc1` (stereo not drawn): the “hERG current change (%, negative = inhibition) at 1uM” value was determined as 14.5%.

Consider `COc1cc(C(=O)NC2CC3CCCC(C2)N3Cc2ccccc2)cc(OC)c1OC` (stereo not drawn), for which the “hERG current change (%, negative = inhibition) at 1uM” value worked out at 15%.

`O=C(O)CCC(=O)NNC(=O)COc1cccc(Cl)c1`: the “hERG current change (%, negative = inhibition) at 1uM” value stood at 5.01%.

Turning to `COC(=O)C1=C(C)NC(=S)NC1/C=C/c1ccccc1` (stereo not drawn), the “hERG current change (%, negative = inhibition) at 1uM” value came to 12.7%.

`COc1cc(CNc2ccc(CNc3ncn[nH]3)cc2)cc(Cl)c1OCc1ccccc1`: the “hERG current change (%, negative = inhibition) at 1uM” value was 11.1%.

Turning to `CNC(=O)c1ccsc1NC(=O)c1sc2ccccc2c1Cl`, the “hERG current change (%, negative = inhibition) at 1uM” value is on record as 20.2%.

Regarding `O=C(Nc1ccccc1C1CC1)c1cccs1`, the “hERG current change (%, negative = inhibition) at 1uM” value stood at 3.83%.

On to `c1ccc(Cn2ncc3c(N4CCN(C(c5ccccc5)c5ccccc5)CC4)ncnc32)cc1`, for which the “hERG current change (%, negative = inhibition) at 1uM” value was found to be 24.6%.

`Cc1ccc(S(=O)(=O)N/N=C/c2ccc(C#N)cc2)cc1`: the “hERG current change (%, negative = inhibition) at 1uM” value was found to be 10.8%.

In the case of `NC(=O)Cn1cc(/C=N\NS(=O)(=O)c2ccc(F)cc2)c2ccccc21`, the “hERG current change (%, negative = inhibition) at 1uM” value is given as 7.41%.

For the compound `Cc1c(/C=N/O)c2ccccn2c1C=O`, the “hERG current change (%, negative = inhibition) at 1uM” value is reported as 11.4%.

Turning to `Cc1[nH]ccc(=O)c1Oc1ncc(C(F)(F)F)cc1Cl`, the “hERG current change (%, negative = inhibition) at 1uM” value worked out at 8.88%.

Turning to `CC1CCCC(C)N1C(=O)CN1CCN(c2nc(-c3ccc(F)cc3)cs2)CC1` (stereo not drawn), the “hERG current change (%, negative = inhibition) at 1uM” value is listed as 1.2%.

Take `O=C(Nc1cc2c(cc1C(=O)O)OCCCO2)c1ccc(C(F)(F)F)cc1`: the “hERG current change (%, negative = inhibition) at 1uM” value is 18.3%.

With `COc1ccc(C(C)=O)cc1COc1ccccc1[N+](=O)[O-]`, the “hERG current change (%, negative = inhibition) at 1uM” value amounted to 19.4%.

Regarding `Cc1ccc(-n2c(SCc3nc4ccccc4[nH]3)nnc2-c2ccncc2)cc1`, the “hERG current change (%, negative = inhibition) at 1uM” value was -9.47%.

On to `O=S(=O)(NCc1ccco1)c1ccccc1Br`, for which the “hERG current change (%, negative = inhibition) at 1uM” value is listed as 8.66%.

`CC(=O)NS(=O)(=O)c1ccc2c(c1)Cc1cc(S(=O)(=O)NC(C)=O)ccc1-2`: the “hERG current change (%, negative = inhibition) at 1uM” value amounted to 15.7%.

For `Cl.OC1(c2cccnc2)CCN(Cc2nnnn2C2CCCCC2)CC1`, the “hERG current change (%, negative = inhibition) at 1uM” value was 13.5%.

Regarding `O=C(COc1ccc([N+](=O)[O-])cc1)NCC(c1cccs1)N1CCOCC1` (stereo not drawn), the “hERG current change (%, negative = inhibition) at 1uM” value is on record as -18.4%.

On to `Clc1cccc(C2=NOC(c3nnc(-c4ccccc4)o3)C2)c1` (stereo not drawn), for which the “hERG current change (%, negative = inhibition) at 1uM” value stood at 15.9%.

`CN(C)CCNC(=O)c1ccc2c(c1)N(Cc1ccc(F)cc1)CCS2`: the “hERG current change (%, negative = inhibition) at 1uM” value is -5.22%.

Regarding `O=C(Nc1ncc(S(=O)(=O)c2ccc([N+](=O)[O-])cc2)s1)c1ccc2ccccc2c1`, the “hERG current change (%, negative = inhibition) at 1uM” value stood at 15.3%.

As for `O=C(Nc1ccc(F)cc1F)c1cc2ncc(CCCl)cn2n1`, the “hERG current change (%, negative = inhibition) at 1uM” value worked out at 8.39%.

With `CCc1ccc(OCC(=O)Nc2ncc3c(n2)CC(C)(C)CC3=O)cc1`, the “hERG current change (%, negative = inhibition) at 1uM” value is on record as -9.42%.

In the case of `Cl.Nc1ccccc1Sc1nc2ccccc2[nH]1`, the “hERG current change (%, negative = inhibition) at 1uM” value is 8.57%.

`CCN1C(=O)c2cccc3c(N)ccc(c23)C1=O`: the “hERG current change (%, negative = inhibition) at 1uM” value is 17.5%.

`Cc1cc(/C=C(\C#N)C(=O)NCc2cccs2)c(C)n1-c1ccc([N+](=O)[O-])cc1`: the “hERG current change (%, negative = inhibition) at 1uM” value was 10.8%.

For the compound `CCCc1nc(SCc2ccc(OCC)cc2)n[nH]1`, the “hERG current change (%, negative = inhibition) at 1uM” value was found to be 12.6%.

For `COc1ccc2[nH]c(CN3CCN(C(C)C)C(CCO)C3)c(C)c2c1` (stereo not drawn), the “hERG current change (%, negative = inhibition) at 1uM” value was 6.12%.

With `COc1ccc(C(=O)O)cc1S(=O)(=O)NCCc1ccccn1`, the “hERG current change (%, negative = inhibition) at 1uM” value is 9.8%.

`Cc1sc2ncnc(NCCCO)c2c1C`: the “hERG current change (%, negative = inhibition) at 1uM” value worked out at 6.84%.

On to `COc1cc(OC)cc(C(=O)NCC(=O)OCC(=O)N2CC(C)CC(C)C2)c1` (stereo not drawn), for which the “hERG current change (%, negative = inhibition) at 1uM” value was determined as 22.1%.

`O=C(NC1CCCCC1)c1ccc2c(=O)n(CC3CCCO3)c(=O)[nH]c2c1` (stereo not drawn): the “hERG current change (%, negative = inhibition) at 1uM” value turned out to be 10.4%.

For the compound `CCN(Cc1ccccc1)C1CCN(Cc2ccc(SC)cc2)CC1.O=C(O)C(=O)O`, the “hERG current change (%, negative = inhibition) at 1uM” value was -23.9%.

On to `O=C(CSc1ccc2ccccc2c1Br)Nc1cccc(S(=O)(=O)NC2=NCCCCC2)c1`, for which the “hERG current change (%, negative = inhibition) at 1uM” value worked out at 8.54%.

As to `CC(C)(C)C(O)C(Oc1ccc(Cl)cc1)n1cncn1` (stereo not drawn), the “hERG current change (%, negative = inhibition) at 1uM” value is 6.26%.

Take `CN(C)CCNC(=O)C(=O)NCC1OCCN1S(=O)(=O)c1ccc([N+](=O)[O-])cc1` (stereo not drawn): the “hERG current change (%, negative = inhibition) at 1uM” value came out at 10.5%.

As to `CN(Cc1ccccc1)c1ccc([N+](=O)[O-])cc1C(=O)O`, the “hERG current change (%, negative = inhibition) at 1uM” value is listed as 15.1%.

Regarding `COC(=O)Nc1ccc([N+](=O)[O-])cc1OC`, the “hERG current change (%, negative = inhibition) at 1uM” value came to 6.79%.

As to `CCCc1nn2c(=O)cc(CSCC(=O)Nc3cccc(OC)c3)nc2s1`, the “hERG current change (%, negative = inhibition) at 1uM” value came out at 14.5%.

`CCCCN(CCCC)CCCN1CC(=O)N2[C@@H](Cc3c([nH]c4ccccc34)C2(C)C)C1=O`: the “hERG current change (%, negative = inhibition) at 1uM” value was -42.9%.

For `Cc1nc(Cl)c(C(=O)Nc2cccc(F)c2)c(C)c1Cl`, the “hERG current change (%, negative = inhibition) at 1uM” value is given as -4.47%.

As for `N#Cc1c(-c2ccc(F)cc2)c2c([nH]c1=O)-c1ccccc1OC2`, the “hERG current change (%, negative = inhibition) at 1uM” value worked out at 14%.

As for `O=C(CNCc1ccccc1Cl)Nc1ccc(C(=O)N2CCCCC2)cc1.O=C(O)C(=O)O`, the “hERG current change (%, negative = inhibition) at 1uM” value is on record as 15.5%.

Regarding `COc1ccc(-c2ncc(CN3CCC(CO)(Cc4cccc(OC)c4)CC3)cn2)cc1`, the “hERG current change (%, negative = inhibition) at 1uM” value was determined as 10.4%.

For the compound `CCc1cc2cc(C)ccc2nc1SCC(=O)NC1CCCC1`, the “hERG current change (%, negative = inhibition) at 1uM” value is reported as -4.96%.

With `Cc1noc(C(F)(F)F)c1C(=O)NNC(=O)c1ccccc1`, the “hERG current change (%, negative = inhibition) at 1uM” value is 15.2%.

On to `O=C(O)CCn1ccc2cc(S(=O)(=O)N3CCCCCC3)ccc21`, for which the “hERG current change (%, negative = inhibition) at 1uM” value was determined as 3.69%.

As to `CCCCC(C(=O)NC1CCCC1)N(C(=O)c1snc(C(N)=O)c1N)c1ccc(C)cc1` (stereo not drawn), the “hERG current change (%, negative = inhibition) at 1uM” value is reported as 20.4%.
